# Assays:
# CD40 [1] = molecular target: T1, CD40 (Homo sapiens, UniProt P25942); assay: Inhibitory activity of anti-CD40-ADC in B cell activation assay system (human PBMCs); type: cell-based; design: endogenous in cells; host or cells: human PBMCs (B cells); DCs differentiated from human CD14+ monocytes
# Cynomolgus monkey CD40 [2] = assay: SPR affinity of anti-CD40-ADC for cynomolgus monkey CD40; type: binding; details: mobile phase Cynomolgus monkey CD40
# [3] = test system: human CD40 transgenic mice; assay: Mouse T cell-dependent humoral immune response (TDAR) model, anti-KLH specific IgG; type: in vivo; details: 0.3 mpk BIW ip, hCD40 transgenic mice (IgG1 control 1 mg/kg)
# [4] = test system: human CD40 transgenic mice; assay: Mouse skin graft rejection model (anti-CD40-ADC); type: in vivo; details: 10 mpk ip, budesonide 0.12 mg/kg QD, dexamethasone 20 mpk QD
# [5] = mouse, in vivo, ip, 10 mg/kg
# CD40 [6] = molecular target: T1, CD40; assay: SPR affinity of anti-CD40-ADC for human CD40; type: binding; design: Glu21-Arg193; purchased Acrobiosystems Inc. CD0-H5228; details: mobile phase Human CD40
# CD40 [7] = molecular target: T1, CD40; assay: Agonistic activity in B cell activation assay system without CD40L; type: cell-based; design: endogenous in cells; host or cells: human PBMCs (B cells); DCs differentiated from human CD14+ monocytes; details: human PBMCs without CD40L, FIG. 4; antagonists at 2.5 nM
# Cynomolgus monkey CD40 [8] = assay: SPR (Biacore) affinity of anti-CD40 antibodies for cynomolgus monkey CD40; type: binding; details: mobile phase Cynomolgus monkey CD40
# [9] = test system: human CD40 transgenic mice; assay: Mouse skin graft rejection model (antibodies, tacrolimus combination); type: in vivo
# CD40 [10] = molecular target: T1, CD40; assay: B cell activation assay system (human PBMCs, CD40L-induced CD19+CD69+); type: cell-based; design: endogenous in cells; host or cells: human PBMCs (B cells); DCs differentiated from human CD14+ monocytes; details: CD40L stimulation overnight
# CD40 [11] = molecular target: T1, CD40; assay: SPR (Biacore) affinity of anti-CD40 antibodies for human CD40; type: binding; design: Glu21-Arg193; purchased Acrobiosystems Inc. CD0-H5228; details: mobile phase Human CD40
# [12] = Table 21: 9E6-L4H2 10 mpk, FK506 3 mpk, alone or combined
# T1 sequence (P25942 21-277): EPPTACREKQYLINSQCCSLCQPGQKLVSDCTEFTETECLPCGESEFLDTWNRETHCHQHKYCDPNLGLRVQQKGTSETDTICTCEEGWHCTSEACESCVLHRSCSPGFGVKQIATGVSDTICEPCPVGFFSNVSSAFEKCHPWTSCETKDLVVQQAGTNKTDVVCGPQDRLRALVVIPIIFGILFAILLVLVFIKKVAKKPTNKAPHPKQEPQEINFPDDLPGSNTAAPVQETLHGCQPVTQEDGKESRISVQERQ
molecule,measurement,setting,value
"9E6-L4H2: humanized anti-CD40 antibody, heavy chain SEQ ID NO: 20, light chain SEQ ID NO: 21, IgG1 N297A (antibody) heavy: QVQVQESGPGLVKPSDTLSLTCTVSGFSLSSYDMSWIRQPPGKGLEWIGAIGGAGGTYYASWAKSRVTISVDTSLNQVSLKLSSVTAADTAVYYCARGWTRLDLWGQGTLVTVSSASTKGPSVFPLAPSSKSTSGGTAALGCLVKDYFPEPVTVSWNSGALTSGVHTFPAVLQSSGLYSLSSVVTVPSSSLGTQTYICNVNHKPSNTKVDKKV[human IgG1 Fc with changes not spelt out] light: DIQLTQSPSFLSASVGDRVTITCQASEDISSNLAWYQQKPGKPPKLLIFPASNLASGVPSRFSGSGSGTEFTLTISSLQPEDFATYYCQGGYWTSTSNFGQGFGGGTKVEIKRTVAAPSVFIFPPSDEQLKSGTASVVCLLNNFYPREAKVQWKVDNALQSGNSQESVTEQDSKDSTYSLSSTLTLSKADYEKHKVYACEVTHQGLSSPVTKSFNRGEC",CD19+CD69+% Maximum inhibition rate,CD40 [1]; Donor 1,95%
same,CD19+CD69+% Maximum inhibition rate,CD40 [1]; Donor 2,104%
same,Ka,Cynomolgus monkey CD40 [2],468000 M⁻¹ s⁻¹
same,Kd,Cynomolgus monkey CD40 [2],0.000138 s⁻¹
same,"anti-KLH specific IgG, Day 7",[3],0.002 ± 0.001
same,"anti-KLH specific IgG, Day 14",[3],0.02 ± 0.01
same,"anti-KLH specific IgG, Day 21",[3],0
same,"anti-KLH specific IgG, Day 28",[3],18.25 ± 8.9
same,"Skin graft survival rate (%), 10 days",[4],100%
same,"Skin graft survival rate (%), 15 days",[4],44.4%
same,"Skin graft survival rate (%), 20 days",[4],11%
same,"Skin graft score, 10 days",[4]; score 3 to 0,2.78
same,"Skin graft score, 15 days",[4]; score 3 to 0,1
same,"Skin graft score, 20 days",[4]; score 3 to 0,0.22
same,AUC(0-d14)((h) * (mg/L)),[5],13439 (h) * (mg/L)
same,C max,[5],85.8 µg/mL
same,T1/2,[5],226.8 h
same,Ka,CD40 [6],407000 M⁻¹ s⁻¹
same,Kd,CD40 [6],0.000377 s⁻¹
same,B cell agonistic activity,CD40 [7],no significant B cell agonistic activity
same,Ka,Cynomolgus monkey CD40 [8],514000 M⁻¹ s⁻¹
same,Kd,Cynomolgus monkey CD40 [8],6.23e-05 s⁻¹
same,Day-15 skin graft survival rate (%),[9]; 3 mpk ip,28.5%
same,"Skin graft score, 8 days","[9]; 3 mpk, score 3 (best) to 0 (rejected)",3
same,"Skin graft score, 10 days","[9]; 3 mpk, score 3 to 0",2.7
same,"Skin graft score, 15 days","[9]; 3 mpk, score 3 to 0",0.6
same,"Skin graft score, 20 days","[9]; 3 mpk, score 3 to 0",0
same,Day-15 skin graft survival rate (%),[9]; 10 mpk ip,14.3%
same,"Skin graft score, 8 days","[9]; 10 mpk, score 3 to 0",3
same,"Skin graft score, 10 days","[9]; 10 mpk, score 3 to 0",2.7
same,"Skin graft score, 15 days","[9]; 10 mpk, score 3 to 0",0.3
same,"Skin graft score, 20 days","[9]; 10 mpk, score 3 to 0",0
same,Day-15 skin graft survival rate (%),"[9]; Table 20: antibody 10 mpk, FK506 3 mpk, alone or combined",14.3%
same,"Skin graft score, 8 days",[9]; [12],3
same,"Skin graft score, 10 days",[9]; [12],2.7
same,"Skin graft score, 15 days",[9]; [12],0.3
same,"Skin graft score, 20 days",[9]; [12],0
same,CD19+CD69+ MFI Maximum inhibition rate,CD40 [10],110%
same,CD19+CD69+% Maximum inhibition rate,CD40 [10],98%
same,Ka,CD40 [11],413000 M⁻¹ s⁻¹
same,"koff (dissociation rate constant, 1/s)",CD40 [11],0.000221 s⁻¹

# From patent US20260207759A1, “COMPOSITION OF CD40-BINDING MOLECULE AND PHARMACEUTICAL USE THEREOF” (SUZHOU SUNCADIA BIOPHARMACEUTICALS CO., LTD., priority 2022, published 2026)
